Among the data in PubChem BioAssay (NCI) are TGI values, retold here.

Among the test systems are CCRF-CEM leukemia; UACC-62 melanoma; EKVX NSCLC; RXF 393 renal; HOP-62 NSCLC; LOX IMVI melanoma; NCI-H460 lung; DMS 273 small cell lung; P388 leukemia.
What all share (experiment): NCI tumour cell line growth inhibition, 48 h

The structures appear in SMILES notation.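 In this assay, cells in 96-well plates receive the compound at five concentrations for 48 hours. Endpoints are linearly interpolated between the surrounding concentrations. TGI: total growth inhibition.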 Not every entry of the source has a single result; some have several. This list holds those alone. The source may hold further records. Records of one sample usually come from different ranges of test concentrations, not given here; some values may only mark the edge of a range.

With `NC(=O)c1csc(C2OC(CO)C(O)C2O)n1` (centres undefined), the TGI in the assay on CCRF-CEM leukemia is 96.9 µM and 4.52 mM.

Regarding `CCN(CC)c1ccc2cc(C(=O)Nc3ccc4[nH]c(C(=O)N5C[C@@H](CCl)c6c5cc(OC(=O)Nc5ccccc5)c5[nH]cc(C)c65)cc4c3)oc2c1`, the TGI is 0.233 nM and 240 µM with UACC-62 melanoma; 0.688 nM and > 1 mM in the assay with EKVX NSCLC; 0.389 nM and 367 µM with RXF 393 renal; 0.715 nM and 426 µM with HOP-62 NSCLC; 0.363 nM and > 1 mM with LOX IMVI melanoma; 0.281 nM and 274 µM in the assay on NCI-H460 lung. Also, the TGI with DMS 273 small cell lung was 0.283 nM and 527 µM; with P388 leukemia, 0.368 nM and 587 µM.
